According to PubChem BioAssay AID360 (National Center for Advancing Translational Sciences (NCATS), 2006):
Among all 48,000 compounds or so, about 550 (1.1%) were called active. Not shown: some 4% with an inconclusive outcome. Rule as the data show it: active = potency below about 15 µM; inconclusive = mostly about 16 µM to 33 µM; inactive = weaker than that. Some of the results follow.

Each compound was assayed against Lysosomal acid glucosylceramidase (Homo sapiens) (UniProt P04062) (assay: Glucocerebrosidase). Conditions: purified enzyme, resorufin glucoside fluorescence (screen aimed at inhibitors), 20 min.
Method in brief: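 Normal human glucocerebrosidase (0.2 nM final) was assayed with resorufin β-D-glucopyranoside (30 uM final) in 50mM citric acid/KH2PO4, 10mM sodium taurocholate, 0.01% tween-20, pH 5.9. Compounds were titrated; fluorescence (Ex 548, Em 600) read after 20 min at RT.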
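Also: the screen sought inhibitors.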
Potency is read from the fitted curve at half-maximal effect.

Sequence of UniProt P04062 (P04062 whole entry, looked up): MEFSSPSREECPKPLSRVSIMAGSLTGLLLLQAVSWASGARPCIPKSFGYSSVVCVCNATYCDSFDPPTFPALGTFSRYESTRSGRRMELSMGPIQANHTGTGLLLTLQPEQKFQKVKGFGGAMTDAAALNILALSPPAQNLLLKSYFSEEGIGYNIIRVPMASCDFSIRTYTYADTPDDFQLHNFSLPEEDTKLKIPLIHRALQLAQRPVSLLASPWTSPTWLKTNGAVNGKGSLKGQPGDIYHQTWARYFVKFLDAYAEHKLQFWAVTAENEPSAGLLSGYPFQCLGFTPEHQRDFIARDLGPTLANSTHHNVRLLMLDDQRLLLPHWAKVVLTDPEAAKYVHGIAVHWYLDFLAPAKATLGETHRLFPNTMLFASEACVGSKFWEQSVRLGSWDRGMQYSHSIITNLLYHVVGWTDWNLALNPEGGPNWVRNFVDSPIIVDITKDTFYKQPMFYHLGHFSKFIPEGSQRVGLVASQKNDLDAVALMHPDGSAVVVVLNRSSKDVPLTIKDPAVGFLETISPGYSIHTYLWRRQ

Compound	Potency
O=C1NC(=O)C2(Cc3ccccc3N3CCCC32)C(=O)N1c1cccc(Cl)c1 (stereo not given)	inactive: > 76.9 µM
O=c1[nH]c(=O)n(Cc2ccc(F)cc2)c(O)c1C=NCCCN1CCOCC1	inactive: > 76.9 µM
O=c1[nH]c(=O)n(CCC2=CCCCC2)c(O)c1C=NCc1cccnc1	inactive: > 76.9 µM
CCOc1cccc(N2C(=O)CC(=O)NC2=O)c1	inactive: > 76.9 µM
O=C1NC(=O)C(CCc2ccncc2)(c2ccccc2)C(=O)N1	inactive: > 76.9 µM
Cc1ccc(C2SCC(=O)Nc3c2c(=O)[nH]n3C2CCOC(C)(C)C2)cc1 (stereo not given)	inactive: > 76.9 µM
Cc1cc(N2CCOCC2)nc2ccc(NC(=O)CCC(=O)N3CCC4(CC3)OCCO4)cc12	active: 4.68 µM
O=c1c2ccccc2nc(N2CCCC2)n1-c1ccc(Cl)cc1	inactive: > 76.9 µM
CC(=NCCN1CCCCC1)c1c(O)n(Cc2ccccc2)c(=O)[nH]c1=O	inactive: > 76.9 µM
CCC(=O)N1CC(=O)Nc2ccc(Cl)cc2C1c1ccc(F)cc1 (stereo not given)	inactive: > 76.9 µM
O=S(=O)(c1ccc(Cl)cc1)N1CN2CCN(C2)C1	inactive: > 76.9 µM
C(#CCN1CCOCC1)COC/C=C/c1ccccc1	inactive: > 76.9 µM
Cc1cccc(CN(C)C)c1OC(=O)N(C)C	inactive: > 76.9 µM
Cc1cc(N2C(=O)C3CCCN3C2c2cccc(Cl)c2)no1 (stereo not given)	inactive: > 76.9 µM
CCOC(=O)C1(c2ccccc2)CCN(Cc2cccc(C(=O)O)c2)CC1	inactive: > 76.9 µM
CCNCC1(c2ccc(OC)c(OC)c2)CCCC1	inactive: > 76.9 µM
C=C1N2CCC(CC2)C1(O)c1ccccc1C (stereo not given)	inactive: > 76.9 µM
O=C(c1ccc(CS(=O)(=O)c2ccc(Br)cc2)o1)N1CCC2(CC1)OCCO2	inactive: > 76.9 µM
COc1ccc(Cn2c(N)c(C(=O)NCc3ccco3)c3nc4ccccc4nc32)cc1OC	inactive: > 76.9 µM
O=C(COc1ccccc1)N1CCN(CC(O)COc2ccccc2)CC1 (stereo not given)	inactive: > 76.9 µM
CCOc1cc2[nH]c(=S)n(CCCC(=O)N3CCC4(CC3)OCCO4)c(=O)c2cc1OCC	inactive: > 76.9 µM
Cc1cc(OCC(=O)NC2CCS(=O)(=O)C2)c2c3c(c(=O)oc2c1)CCC3 (stereo not given)	inactive: > 76.9 µM
CCC(=NCCO)c1c(O)n(-c2ccccc2)c(=O)[nH]c1=O	inactive: > 76.9 µM

Compound	Potency
CC(=O)c1ccccc1NC(=O)C1C2CCC(O2)C1C(=O)O (stereo not given)	inactive: > 76.9 µM
CCOC(=O)C1C(=O)NC23CCCC2C1c1ccccc1O3 (stereo not given)	inactive: > 76.9 µM
Cc1nn(-c2ccccc2)c2c1C(c1ccc3c(c1)OCO3)SCC(=O)N2 (stereo not given)	inactive: > 76.9 µM
O=C(CN1C2CCC1CC(O)(c1cccnc1)C2)Nc1ccc2c(c1)OCO2 (stereo not given)	inactive: > 76.9 µM
O=C(NC1(C(F)(F)F)Oc2ccc(Cl)cc2O1)N1CCC2(CC1)OCCO2 (stereo not given)	inactive: > 76.9 µM
COc1cccc(-c2nc(CS(=O)CC(=O)N3CCC4(CC3)OCCO4)c(C)o2)c1 (stereo not given)	inactive: > 76.9 µM
O=C(c1cc(=O)[nH]c2ccc(Br)cc12)N1CCC2(CC1)OCCO2	inactive: > 76.9 µM
COC(=O)N(c1ccc(OC)cc1)P1(=S)OCCC(C)O1 (stereo not given)	inactive: > 76.9 µM
COc1ccc(-c2cc(C(F)(F)F)n3nc(C(=O)N4CCC5(CC4)OCCO5)cc3n2)cc1OC	inactive: > 76.9 µM
COc1ccc(N=C(C)c2c(O)n(C3CCCCC3)c(=O)[nH]c2=O)c(OC)c1	inactive: > 76.9 µM
Cc1ccc(OCC(=O)NCCN2CCN(C(=O)COc3ccc(C)cc3)CC2)cc1	inactive: > 76.9 µM
O=C(C1c2ccccc2C(=O)N2CCc3ccccc3C12)N1CCC2(CC1)OCCO2 (stereo not given)	inactive: > 76.9 µM
CC(C)(C)n1c(O)c(C=Nc2ccc3c(c2)CCC3)c(=O)[nH]c1=O	active: 10.9 µM
CCCCn1c(O)c(C(C)=NCCCN(C)C)c(=O)[nH]c1=O	inactive: > 76.9 µM
O=C(CCn1c(=O)oc2ccccc21)N1CCC2(CC1)OCCO2	inactive: > 76.9 µM
CC(C)(C)c1ccc(O)c(CN2CCN(c3ccccc3)CC2)c1	inactive: > 76.9 µM
Cc1cc(NC(=O)CCC(=O)N2CCC3(CC2)OCCO3)no1	inactive: > 76.9 µM
CSc1ccc(CNC2CN3CCC2CC3)cc1 (stereo not given)	inactive: > 76.9 µM
N=C1C(c2ccccc2)=C(O)CN1Cc1ccco1	inactive: > 76.9 µM
CC(C)C1(C)N=C(c2nc3ccccc3cc2C(=O)O)NC1=O (stereo not given)	inactive: > 76.9 µM
Cn1ncnc2c(=O)n(C)c(=O)nc1-2	inactive: > 76.9 µM
CC(Cc1ccccc1)[n+]1cc(/N=C(\[O-])N(C)C)on1 (stereo not given)	inactive: > 76.9 µM
